The source of these data is the supplement of paper PMC11417369.

± gives the standard deviation of the averaged measurements. This is one part of the list.

For this test, the system named is PfAP2-EXP AP2 domain (GST-tagged). Kind of test: gcPBM binding intensity (ln(normalized median fluorescence intensity)); higher = stronger DNA binding. A digest of the protocol: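 An Agilent 4 × 180k array of primer-extended double-stranded 36-bp intergenic genomic probes, with negative controls, was incubated for 1 h with GST-tagged P. falciparum DNA-binding domains expressed in E. coli. Alexa488 anti-GST antibody detected bound protein, scanned at 488 nm. Binding intensity is the highest Masliner-normalised natural-log median intensity across replicate spots of either probe orientation.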
As for “CACAGACACGGACACACACACATATATATATATATA [CACACA_site5248]”, the “gcPBM binding intensity (ln)” value is 10.2 ± 0.26.
The same measure for “AACAAAATAGGGAACACACACATGTCGATATATAAA [CACACA_site7265]”: 8.91 ± 0.35; for “ATAATATGAAGAAGCACACTCAATTAAATACAGATA [CACACA_site4690]”: 8.61 ± 0.56; for “ATACACACATATATGTGTACATATACATATATATAT [XGTACX_site6744]”: 9.53 ± 0.32.
The value for “AACATCAAAATATGCACACAAACAATTAGCGGTAGT [CACACA_site2521]” was 8.94 ± 0.35; that for “AAAAAAAAAGACAAAAGTACAAAGGTTCATAATTTA [XGTACX_site3978]” was 8.5 ± 0.55.
The value for “ATATTTTATTTTTAAAGTACAAAAGAAAAGAATAAT [XGTACX_site8247]” was 8.67 ± 0.52; that for “GATTTACATTTTGATGAAAATAATAAAATGTGGAAA [TGCATGCA_negctrl_site409]” was 8.54 ± 0.42; that for “AAAAAAAAAAAAAAAACATGCAGTTAGTGGTTTTTT [TGCATGCA_site243]” was 9.01 ± 0.56.
For the sequence “AATAAATGGAAAAGGTGTACACAAAAAAAAGGGAAA [XGTACX_site4956]”, the “gcPBM binding intensity (ln)” value was 9.26 ± 0.57.
The value for “CTTATATTTGGACACACACACAATAAAATGAAAAAA [CACACA_site6614]” was 8.94 ± 0.45.
The same measure for “AAATCTTCATAATAAAGTACTTAACTCTTGGTGTTA [XGTACX_site6112]”: 8.3 ± 0.46.
The same measure for “TACACAAGAAAATTCACACACACACCGATATATATA [CACACA_site6008]”: 8.78 ± 0.33; for “GAAATGGGTAAACATACACACACACCGATATATATA [CACACA_site8610]”: 8.89 ± 0.4; for “AAAAATTTCTATTTTTGTACTTACTTTTTAGTAATA [XGTACX_site5236]”: 8.19 ± 0.27.
With “TAACAATTATGCTGGTGTACGTTTGAAATTGGGTAT [XGTACX_site6846]”, the “gcPBM binding intensity (ln)” value is 8.73 ± 0.28.
The same measure for “AAAAAACAAAAAAATACACACATAAAAAGGTTTTAG [CACACA_site3584]”: 8.63 ± 0.54; for “TAAACATAACAAAGGAGTACAAAACTTGATCAGTTC [XGTACX_site3114]”: 8.87 ± 0.55.
Regarding “TTATAAGATGATTATAAAATCAAATTCATTCTTTTA [CACACA_negctrl_site1338]”, the “gcPBM binding intensity (ln)” value came to 7.84 ± 0.45.
The same measure for “AAATATGTCAAATATACACACATAATAAATATAATA [CACACA_site2310]”: 8.44 ± 0.41; for “TATGTATAAAAATAATGTACAAAATATATTATATGT [XGTACX_site2794]”: 8.69 ± 0.33.
The same measure for “ATCTTAGTTGAAATATAGAATTTATAATAAAAGTTA [GTGCAC_negctrl_site122]”: 8.09 ± 0.47; for “ATACTATAATAATACACACTCATTAGATATATAAAG [CACACA_site7787]”: 8.37 ± 0.3; for “TGTACAAATATGTACACACACACATATTTATTTATA [CACACA_site6419]”: 8.48 ± 0.15.
The same measure for “ACGAAAAGATATATATGTACATATATTAAAAAAAAA [XGTACX_site1517]”: 8.69 ± 0.35; for “TTAATTAAATATAGGGGTACATATTATATATGTTTT [XGTACX_site3677]”: 8.74 ± 0.54.
As for AATATGGGCATACATGTGCACTTTTTCCCGTGGTTT, the “gcPBM binding intensity (ln)” value amounted to 8.81 ± 0.2.
Take “AAGAAATTTATTTATTGTACAATATATAATTTGTTT [XGTACX_site2478]”: the “gcPBM binding intensity (ln)” value worked out at 8.4 ± 0.49.
The same measure for AAATATTTCTGCAAGGTGCACTTTATAAATCTTTGA: 9.95 ± 1.4.
For “TTATATGCATATTTTTGTACACAACATTGTTGTATA [XGTACX_site8707]”, the “gcPBM binding intensity (ln)” value was found to be 8.95 ± 0.38.
The value for “ATGTATATTTTTATGTGTACGTAATAAAACATAATA [XGTACX_site7777]” was 8.62 ± 0.014; that for “TTATTTTTTTTTAGAGCACACATTTTTAATAAGGTA [CACACA_site2133]” was 8.38 ± 0.19; that for “TATAAATTTGTTCAATGTACATGTAAAGATATAATC [XGTACX_site371]” was 8.81 ± 0.29.
The value for “TGAAGCAAAAACAAAACACACATATAAATAAATAAA [CACACA_site3925]” was 8.72 ± 0.43.
As for “TTATTTTTTATAAAATGTACATATATTTTAAATATA [XGTACX_site4026]”, the “gcPBM binding intensity (ln)” value came out at 8.41 ± 0.29.
The same measure for “ACCAATCCAAAAGAATGTACCCATGTTTTAAAATAT [XGTACX_site2907]”: 8.49 ± 0.28.
The value for “TTTTGTTAACATATAGAAAAGAACAAAGTTAAAAAG [XGTACX_negctrl_site462]” was 8.73 ± 0.48; that for “TTCGTATGCATGAAATGTACATGATATTATTATAAA [XGTACX_site4542]” was 8.55 ± 0.37.
The value for “GAAAAAAAAATACATACACACAATATATTTATTTAT [CACACA_site3124]” was 8.32 ± 0.4.
As for “TATTATATATAATATTGTACATTAAAATATTAAAGA [XGTACX_site3698]”, the “gcPBM binding intensity (ln)” value was 8.42 ± 0.33.
For “ATATGTATTAAGTGTACACATATAATGGGTTTTCTT [CACACA_site5328]”, the “gcPBM binding intensity (ln)” value is 8.71 ± 0.27.
The same measure for “GGAACGTTCATATTTCCACACACAAAAAATAAATAT [CACACA_site9101]”: 8.62 ± 0.61.
For the sequence “TTTATTTTAAAATATAGTACGCAAATAAAAATAAAT [XGTACX_site7783]”, the “gcPBM binding intensity (ln)” value stood at 8.99 ± 0.4.
Take “TATATACTATATATATGTACACAAAATTATTTTGAA [XGTACX_site8232]”: the “gcPBM binding intensity (ln)” value is 8.54 ± 0.35.
The value for “ATATGTAGTGTTATTTGTTCATTGTTTTAATTTTTA [CACACA_negctrl_site1394]” was 8.7 ± 0.47; that for “TAATTATATAAATACACACACATACACCCAAATAAA [CACACA_site5819]” was 8.96 ± 0.48.
The value for “TAAATGAAAATATGTACACACTTGAAAATTTTTATG [CACACA_site5599]” was 8.69 ± 0.43; that for “TATATTATATATATATGTACATATTATTATATCTAA [XGTACX_site3835]” was 8.31 ± 0.33.
The same measure for “TTTTGTATTTTTCACACACACATAAGTAAACAATAA [CACACA_site1899]”: 8.62 ± 0.35; for “AAACATATGGTATTTAAACACACAAAAAAGAAAGAA [CACACA_site8239]”: 9.07 ± 0.4; for “ATGTTGTGGATATATACACACATACATATTTATATA [CACACA_site6857]”: 8.39 ± 0.31.
Turning to “AAATTAAATATTATATTAATTCTTAAATTTTTTTTT [CACACA_negctrl_site439]”, the “gcPBM binding intensity (ln)” value is 7.8 ± 0.34.
The value for “ATACAATAATATAAATGTACAAATTATATCTTCATT [XGTACX_site8994]” was 8.37 ± 0.33.
The same measure for “AATCTTTTTAAATCTTGATTAATTTCGGGTATATAT [TGCATGCA_negctrl_site107]”: 8.53 ± 0.48.
The value for “TACAAGAACAAAAAATGTACGAAATAATTACAAATA [XGTACX_site5824]” was 8.77 ± 0.42; that for “AATTTCAATTTCTGTTGTACACTTTTTAATAGTAAA [XGTACX_site4085]” was 8.65 ± 0.46; that for “AAATTTAAAAATAAAGAACACACATATGTAAAATAT [CACACA_site9252]” was 8.78 ± 0.52.
For the sequence “AAAAAAAAAAAAAAAACACACAAACATCAAATTACT [CACACA_site6950]”, the “gcPBM binding intensity (ln)” value turned out to be 8.69 ± 0.24.
The same measure for “TATGATAAATATGGAGCACACACACCGAAACATACA [CACACA_site8031]”: 9.01 ± 0.49.
Take “TAGCATGATTTGCCTTGTACACAACCGTTTTAATAA [XGTACX_site7911]”: the “gcPBM binding intensity (ln)” value stood at 8.66 ± 0.4.
As to “AAGTGTTCTTGTTATACACACACATATATATATATA [CACACA_site8251]”, the “gcPBM binding intensity (ln)” value is 10.1 ± 0.16.
The value for “TATTTATAAATATACGCACACATTAATATATATATA [CACACA_site3969]” was 9.44 ± 0.21.
The same measure for “GTTGGTAGGCGGTACGGTACACGTAGTATTTTTCTT [XGTACX_site4213]”: 8.64 ± 0.39; for “ATATTATTTATTTTTAAATTATATTGATTATTTTTT [CACACA_negctrl_site451]”: 7.94 ± 0.35.
The value for “AGTATGTAAATGTGCCATATATATATTAAATACATA [CACACA_negctrl_site14]” was 8.57 ± 0.36; that for “TAGAAATATATTTATTGTACATTGTATATATTATAT [XGTACX_site7584]” was 8.35 ± 0.48; that for “TTGAAGTGTACTATTTTATATATATATATACATTTT [CACACA_negctrl_site224]” was 8.66 ± 0.23.
As to “TCTTTTTTTTTTACTAGTACTTAAAAAAAAAATATG [XGTACX_site4395]”, the “gcPBM binding intensity (ln)” value turned out to be 8.39 ± 0.33.
The value for “ATTATGTGCCAATACACACACACATCTATATTTATA [CACACA_site6359]” was 8.72 ± 0.31.
The same measure for “TTTTAATTTTTAAGACGTACTATCATTTGATAATAA [XGTACX_site3942]”: 8.1 ± 0.42; for “TACGATGTTTTAAAATGTACATAAAAGTCACATAAG [XGTACX_site3297]”: 8.52 ± 0.34; for TAATGTTCCTATATAGTGCAATTATGTTTTATTTCT: 8.79 ± 0.22.
Regarding “ACTGTGGGAATAACCACACACACACCCACATATATA [CACACA_site3542]”, the “gcPBM binding intensity (ln)” value is 8.47 ± 0.38.
For the sequence “ATATTTATATGAATCACACACAAAAAATATAGAGAT [CACACA_site7775]”, the “gcPBM binding intensity (ln)” value was 8.73 ± 0.29.
The same measure for “TATATACGCATGCGCACACACAAGTGGGAAATTTGG [CACACA_site1785]”: 9.3 ± 0.43.
The value for “TTATTATATAAATAAAAAAAAAAAAAAAAAAAAAAA [CACACA_negctrl_site1455]” was 7.9 ± 0.37; that for “AAATCACAAAAAAAAAAAAAAATATATATATATATA [CACACA_negctrl_site10]” was 10.1 ± 0.37; that for “CATAAATACAAATATACACACATATATATATATATA [CACACA_site2633]” was 10.1 ± 0.35.
The same measure for “AATATGTTTTTTAGATGTACAGATTAAATATTAAAA [XGTACX_site7308]”: 8.47 ± 0.42; for “AAATAGTAAGAGATGGTGCGTTTCCTTTTTTTTTTT [GTGCAC_site9663]”: 8.54 ± 0.15; for “TTTAAAAATATTTCACGTACGCATTTTAAAAAGTAT [XGTACX_site8026]”: 8.57 ± 0.35.
With “TTTTTTTCATATATATGTACATAATTATATATGCAT [XGTACX_site3257]”, the “gcPBM binding intensity (ln)” value was 8.83 ± 0.38.
The same measure for “CGTGGGAGCAGACACACACACACACCCATATATATA [CACACA_site334]”: 8.53 ± 0.12; for “TTAATTATATGGTAAACAAATAAATGTGAAAGGAAA [XGTACX_negctrl_site389]”: 8.92 ± 0.41; for “TATATACAACGTTAAGCACACACAAAAAAAATTTAA [CACACA_site9013]”: 8.7 ± 0.54.
With “TTAAAAATAAATTCATGTACATAATATATATATATA [XGTACX_site7908]”, the “gcPBM binding intensity (ln)” value is 10.01 ± 0.057.
For “CATATGTATATGACTACACACAAGGGTGTACCTATA [CACACA_site6670]”, the “gcPBM binding intensity (ln)” value worked out at 8.36 ± 0.44.
For “AAAACATAAATACATACACACATAATATAGATTAAT [CACACA_site6205]”, the “gcPBM binding intensity (ln)” value worked out at 8.76 ± 0.35.
The same measure for “TTGCATTTATTATACACACACAAAAAAATATTTATA [CACACA_site6252]”: 8.56 ± 0.38.
